Experimental findings from the supplement of paper PMC8728848 are described below.

This is one part of the list.

Holding throughout (assay): glycan array binding signal (z-score within array); higher = stronger binding
Common to all, as to conditions: glycan notation: IUPAC condensed, linker removed

The target of assay [1] is Gal(b1-4)GlcNAc(b1-2)Man(a1-3)[Gal(b1-4)GlcNAc(b1-2)Man(a1-6)]Man(b1-4)GlcNAc(b1-4)[Fuc(a1-6)]GlcNAc. In short, it runs like this:
(§1)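 Negative Z-scores can be read as non-binding. The Z-score is calculated within each array and then averaged across arrays of one protein sequence at different concentrations or buffers and across linkers. Arrays, 3228 in all, were curated from the Consortium for Functional Glycomics database and kept only where the protein sequence was available.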

The target in assay [2] is Gal(b1-4)GlcNAc(b1-2)Man(a1-3)[Gal(b1-4)GlcNAc(b1-2)Man(a1-6)][Gal(b1-4)GlcNAc(b1-4)]Man(b1-4)GlcNAc(b1-4)[Fuc(a1-6)]GlcNAc. In short, it runs like this:
as §1

Assay [3] has as its target Gal(b1-4)GlcNAc(b1-2)Man(a1-3)[Gal(b1-4)GlcNAc(b1-2)Man(a1-6)][GlcNAc(b1-4)]Man(b1-4)GlcNAc(b1-4)[Fuc(a1-6)]GlcNAc. In short, it runs like this: as §1
Assay [4] concerns the target Gal(b1-4)GlcNAc(b1-2)Man(a1-3)[GlcNAc(b1-2)Man(a1-6)]Man(b1-4)GlcNAc(b1-4)GlcNAc. In short, it runs like this: as §1
Assay [5] concerns the target Gal(b1-4)GlcNAc(b1-2)Man(a1-3)[GlcNAc(b1-4)][Gal(b1-4)GlcNAc(b1-2)Man(a1-6)]Man(b1-4)GlcNAc(b1-4)GlcNAc. In short, it runs like this: as §1
For assay [6], the target named is Gal(b1-4)GlcNAc(b1-2)Man(a1-3)[Man(a1-6)]Man(b1-4)GlcNAc(b1-4)GlcNAc. In short, it runs like this:
as §1

Assay [7] has as its target Gal(b1-4)GlcNAc(b1-2)Man(a1-6)Man(b1-4)GlcNAc(b1-4)GlcNAc. In short, it runs like this: as §1
The target of assay [8] is Gal(b1-4)GlcNAc(b1-2)Man(a1-6)[GlcNAc(b1-2)Man(a1-3)]Man(b1-4)GlcNAc(b1-4)GlcNAc. In short, it runs like this:
as §1

The target in assay [9] is Gal(b1-4)GlcNAc(b1-2)Man(a1-6)[Man(a1-3)]Man(b1-4)GlcNAc(b1-4)GlcNAc. In short, it runs like this:
as §1

Assay [10] concerns the target Gal(b1-4)GlcNAc(b1-2)[Gal(b1-4)GlcNAc(b1-4)]Man(a1-3)[Gal(b1-4)GlcNAc(b1-2)Man(a1-6)]Man(b1-4)GlcNAc(b1-4)GlcNAc. In short, it runs like this:
as §1

For assay [11], the target named is Gal(b1-4)GlcNAc(b1-2)[Gal(b1-4)GlcNAc(b1-4)]Man(a1-3)[Gal(b1-4)GlcNAc(b1-2)[Gal(b1-4)GlcNAc(b1-6)]Man(a1-6)]Man(b1-4)GlcNAc(b1-4)GlcNAc. In short, it runs like this:
as §1

Assay [12] deals with Gal(b1-4)GlcNAc(b1-2)[Gal(b1-4)GlcNAc(b1-4)]Man(a1-3)[GlcNAc(b1-4)][Gal(b1-4)GlcNAc(b1-2)Man(a1-6)]Man(b1-4)GlcNAc(b1-4)GlcNAc. In short, it runs like this:
as §1

The target of assay [13] is Gal(b1-4)GlcNAc(b1-2)[Gal(b1-4)GlcNAc(b1-4)]Man(a1-3)[GlcNAc(b1-4)][Gal(b1-4)GlcNAc(b1-2)[Gal(b1-4)GlcNAc(b1-6)]Man(a1-6)]Man(b1-4)GlcNAc(b1-4)GlcNAc. In short, it runs like this:
as §1

Assay [14] deals with Gal(b1-4)GlcNAc(b1-2)[Gal(b1-4)GlcNAc(b1-6)]Man(a1-6)[Gal(b1-4)GlcNAc(b1-2)Man(a1-3)]Man(b1-4)GlcNAc(b1-4)GlcNAc. In short, it runs like this: as §1
In assay [15] the target is Gal(b1-4)GlcNAc(b1-2)[Gal(b1-4)GlcNAc(b1-6)]Man(a1-6)[Gal(b1-4)GlcNAc(b1-2)Man(a1-3)]Man(b1-4)GlcNAc(b1-4)[Fuc(a1-6)]GlcNAc. In short, it runs like this: as §1
Assay [16] has as its target Gal(b1-4)GlcNAc(b1-2)[Gal(b1-4)GlcNAc(b1-6)]Man(a1-6)[GlcNAc(b1-4)][Gal(b1-4)GlcNAc(b1-2)Man(a1-3)]Man(b1-4)GlcNAc(b1-4)GlcNAc. In short, it runs like this:
as §1

For assay [17], the target named is Gal(b1-4)GlcNAc(b1-2)[Gal(b1-4)GlcNAc(b1-6)]Man(a1-6)[GlcNAc(b1-4)][Gal(b1-4)GlcNAc(b1-2)[Gal(b1-4)GlcNAc(b1-4)]Man(a1-3)]Man(b1-4)GlcNAc(b1-4)[Fuc(a1-6)]GlcNAc. In short, it runs like this: as §1
Assay [18] concerns the target Gal(b1-4)GlcNAc(b1-3)Gal(b1-3)GalNAc. In short, it runs like this:
as §1

In assay [19] the target is Gal(b1-4)GlcNAc(b1-3)Gal(b1-3)GlcNAc. In short, it runs like this:
as §1

B1: B1257 (Bifidobacterium sp) (protein)
chain: MKKSIRLVAAIAALAMTAGISACGSSTNGNQAKSDVTAQDVETALTDTSKNVELTVWAYSAKQMEPTVKAFEKKYPHIKINFVNTGAAGDHFTKFQNVVQAQKDIPDVVQMGANKFQQFAVSGALLNFANDSIEKAWSKLYTKTAWAQVHYAGGLYGAPQDATPLANYVRKDILDEHNLQVPESWEDIYNEGIKLHKEDSNKYMGILGSDISFFTNLYRSVGARLWKVNSVDDVELTMNSGKAKEFTEFLQKCLKDGVLEGGTVFTDEFNRSINDGRYATFINENWMGNTYKEQNPSLKGKMVVAAPPSWKGQPYQSSSVGSMMSVSAACPKEKQAAALAFINWLDSDKDAIQSWQDTNNGNFFMAASVYQDDENQRNKKETDGYYANDDVNAVYFDSMDKVNTDWEYLPFMSQVEVVFNDVIVPQMNENGDLVGAMAKAQQELKTYAKDNGFKVTTDAD
For B1, the “glycan array binding signal (z-score)” value in assay [1] was 0.059; in [2], -0.139; in assay [3], -0.166; in [4], -0.187; in assay [5], -0.171; in assay [6], -0.051. Also, the “glycan array binding signal (z-score)” value is -0.085 in assay [7]; -0.035 in assay [8]; 0.042 in assay [9]; -0.081 in assay [10]; -0.103 in assay [11]; -0.094 in [12]. For the same molecule, the “glycan array binding signal (z-score)” value is -0.071 in assay [13]; -0.006 in [14]; -0.054 in assay [15]; -0.095 in assay [16]; -0.084 in assay [17]; -0.103 in [18]. Further, the “glycan array binding signal (z-score)” value in [19] was -0.162.
